Source: US11407819B2, “Compositions and use of a fibrinogen binding motif present in EFB and COA for therapeutics and vaccines against Staphylococcus aureus” (priority 2013, dated 2022)

Tested on: Coa-F, Coa-R0, Efb-N, Efb-O, Efb-A binding to Fg
Experiment: Inhibition by FBE5 scFv-Fc of Coa and Efb fragment binding to immobilized human Fg
Set-up: species or system Staphylococcus aureus
Conditions: scFv-Fc 0.5, 5, 50 μg/ml
Description: To assess the inhibitory activity of anti-Coa scFv-Fc antibodies, 0.5 μg/well of human Fg was immobilized at 4° C. overnight in 50 mM Carbonate Buffer, pH 9.6. Indicated amounts (50, 5, 0.5 μg/ml) of scFv-Fcs prepared in 2% BSA+1×TBS+0.05% TWEEN® 20 were pre-incubated for 1 hour with a constant concentration of Coa or Efb fragments also prepared in 2% BSA+1×TBS+0.05% TWEEN® 20 at room temperature, 250 rpm shaking. Specifically, Coa-F, Coa-R0, Efb-N and Efb-O were at a fixed concentration of 10 nM; whereas Efb-A was at 750 nM. Fg-binding activity of each protein alone was also checked (no mAb control—0 μg/ml). The Fg-coated plate was blocked with 2% BSA-TBST and washed with PBST. […] Residual bound Coa and Efb fragments were detected with HRP-conjugated (HorseRadish Peroxidase-conjugated) α-GST-tag antibody, except for Efb-N, where an HRP-conjugated α-HIS-tag was used (see FIG. 18). HRP-tagged antibodies were diluted in 2% BSA+1×TBS+0.05% TWEEN® 20 and used at 1:10000 dilution. […] HRP signal was developed using […]™ OPD tablets using manufacturer's guidelines. Binding of Coa and Efb fragments to Fg (no mAb control) was set to 100% and residual binding to Fg of Coa and Efb fragments in the presence of different concentrations of antibodies was calculated and represented.
To assess the inhibitory activity of anti-Coa scFv-Fc antibodies, 0.5 μg/well of human Fg was immobilized at 4° C. overnight in 50 mM Carbonate Buffer, pH 9.6. Indicated amounts (0, 0.5, 5, and 50 μg/ml) of scFv-Fcs were pre-incubated for 1 hour with a constant concentration of Coa or Efb fragments. Specifically, Coa-F, Coa-R0, Efb-N and Efb-O were at a fixed concentration of 10 nM; whereas Efb-A was at 750 nM. […] Residual bound Coa and Efb fragments were detected with HRP-conjugated (HorseRadish Peroxidase-conjugated) α-GST-tag antibody, except for Efb-N, where an HRP-conjugated α-HIS-tag was used. Binding of Coa and Efb fragments to Fg (no mAb control) was set to 100% and residual binding to Fg of Coa and Efb fragments in the presence of different concentrations of antibodies was calculated and represented.

B1: FBE5-D10: VH SEQ ID NO: 78, VL SEQ ID NO: 108 (antibody, V domains shown)
VH: QVQLVQSGGGVVQPGRSLRLSCAASGFTFSNYGMHWVRQAPGKGLEWVAVISYDGSNKYYADSVKGRFTISRDNSKNTLYLQMNSLRAEDTAVYYCAKDSREQWLAHWGQGTLVTVSS
VL: QSVLTQPPSASGTPGQRVTISCSASSSNIGSNTVNWYQQLPGTAPKLLIYSNNQRPSGVPDRFSGSRSGTSASLAISGLQSEDEADYYCAAWDDSLNALVFGGGTKLTVL
For B1, the “inhibition of CoaF, CoaRO and EfbA binding to Fg” value was “clear inhibition”, the “inhibition of EfbN and EfbO binding to Fg” value was “less efficient” and the “inhibition of binding to Fg of all proteins tested” value (Coa-F, Coa-R0, Efb-N, Efb-O 10 nM, Efb-A 750 nM) was “dose dependent inhibition of all proteins tested”.
